tested on: Z138 cells; assay: Z138 cell proliferation assay (XTT); format: cell-based; conditions: 7 days, XTT readout, read-out: Z-138 GI50
Description: Z138 Cell Proliferation Assay:
Z138 cells were seeded in a 96-well round-bottom plate and treated with varying concentration of compound. The final DMSO concentration was maintained at 0.05%. The selected compounds of present invention were screened in a 9-point dose response format starting with 10 μM and ⅓^rd serial dilution. On the 4th day, cells were spun down and media was replaced while maintaining the initial compound concentration in each well. At the end of the 7th day, cells were spun down and media was aspirated. 50 μL of XTT containing media was added to the wells. The plates were read using the M3 spectrophotometer at 465 nm. GI50 values were calculated by fitting the dose response data to sigmoidal curve fitting equation using GraphPad Prism software V7. […]

N#Cc1ccc(CN2CCN(CC(O)CN3CCc4ccccc4C3)C2=O)cc1 (single isomer, unassigned) [Example 18b, 4-((3-(3-(3,4-dihydroisoquinolin-2(1H)-yl)-2-hydroxypropyl)-2-oxoimidazolidin-1-yl)methyl)benzonitrile] was tested. Which GI50 did it give?
The GI50 was > 1000 nM.

How did the GI50 turn out when N#Cc1ccc(CN2CCN(CC(O)CN3CCc4ccccc4C3)C2=O)nc1 (single isomer, unassigned) [Example 35b, 6-((3-(3-(3,4-Dihydroisoquinolin-2(1H)-yl)-2-hydroxypropyl)-2-oxoimidazolidin-1-yl)methyl)nicotinonitrile] was run?
The GI50 was > 1000 nM.

same assay, conditions: Homo sapiens, Z-138, 168 h, 7 days, XTT readout

With N#Cc1ccc(CN2CCN(CC(O)CN3CCc4ccccc4C3)C2=O)cc1 (single isomer, unassigned) [Example 18a, 4-((3-(3-(3,4-dihydroisoquinolin-2(1H)-yl)-2-hydroxypropyl)-2-oxoimidazolidin-1-yl)methyl)benzonitrile] as the molecule, how does the GI50 read?
Its GI50 is < 500 nM.

For N#Cc1ccc(CN2CCN(CC(O)CN3CCc4ccccc4C3)C2=O)nc1 (single isomer, unassigned) [Example 35a, 6-((3-(3-(3,4-Dihydroisoquinolin-2(1H)-yl)-2-hydroxypropyl)-2-oxoimidazolidin-1-yl)methyl)nicotinonitrile], which GI50 is on record?
The GI50 was < 500 nM.

N#Cc1ccc(Cn2ccn(CC(O)CN3CCc4ccccc4C3)c2=O)cc1 (single isomer, unassigned) [Example 82b, 4-((3-(3-(3,4-dihydroisoquinolin-2(1H)-yl)-2-hydroxypropyl)-2-oxo-2,3-dihydro-1H-imidazol-1-yl)methyl)benzonitrile] was tested. Which GI50 did it give?
Its GI50 is < 500 nM.

CC1(C)CN(Cc2ccc(C#N)cc2)C(=O)N1CC(O)CN1CCc2ccccc2C1 (stereo not shown) [Example 2] was tested. Which GI50 did it give?
The GI50 was < 500 nM.

For Cc1ccc(CN2CC(C)(C)N(CC(O)CN3CCc4ccccc4C3)C2=O)cc1 (stereo not shown) [Example 5, 3-(3-(3,4-dihydroisoquinolin-2(1H)-yl)-2-hydroxypropyl)-4,4-dimethyl-1-(4-methylbenzyl)imidazolidin-2-one], which GI50 is on record?
Its GI50 is < 500 nM.

Which GI50 does the source give for Cc1ccc(CN2CC3(CC3)N(CC(O)CN3CCc4ccccc4C3)C2=O)cn1 (stereo not shown) [Example 6, 4-(3-(3,4-dihydroisoquinolin-2(1H)-yl)-2-hydroxypropyl)-6-((6-methylpyridin-3-yl)methyl)-4,6-diazaspiro[2.4]heptan-5-one] here?
Its GI50 is < 500 nM.

Cc1ccc(CN2C(=O)N(CC(O)CN3CCc4ccccc4C3)CC2(C)C)cc1 (stereo not shown) [Example 10, 1-(3-(3,4-dihydroisoquinolin-2(1H)-yl)-2-hydroxypropyl)-4,4-dimethyl-3-(4-methylbenzyl)imidazolidin-2-one] was tested. Which GI50 did it give?
Its GI50 is < 500 nM.

For CC1(C)CN(Cc2ccc(C#N)nc2)C(=O)N1CC(O)CN1CCc2ccccc2C1 (stereo not shown) [Example 12, 5-((3-(3-(3,4-dihydroisoquinolin-2(1H)-yl)-2-hydroxypropyl)-4,4-dimethyl-2-oxoimidazolidin-1-yl)methyl)picolinonitrile], which GI50 is on record?
Its GI50 is < 500 nM.

For Cc1ccccc1CN1CCN(CC(O)CN2CCc3ccccc3C2)C1=O (stereo not shown) [Example 16, 1-(3-(3,4-Dihydroisoquinolin-2(1H)-yl)-2-hydroxypropyl)-3-(2-methylbenzyl)imidazolidin-2-one], which GI50 is on record?
Its GI50 is > 1000 nM.

How did the GI50 turn out when N#Cc1ccc(CN2CCN(CC(O)CN3CCc4ccccc4C3)C2=O)cc1 (stereo not shown) [Example 18, 4-((3-(3-(3,4-dihydroisoquinolin-2(1H)-yl)-2-hydroxypropyl)-2-oxoimidazolidin-1-yl)methyl)benzonitrile] was run?
The GI50 was < 500 nM.

With Cc1ccc(CN2CCN(CC(O)CN3CCc4ccccc4C3)C2=O)cn1 (stereo not shown) [Example 19, 1-(3-(3,4-dihydroisoquinolin-2(1H)-yl)-2-hydroxypropyl)-3-((6-methylpyridin-3-yl)methyl)imidazolidin-2-one] as the molecule, how does the GI50 read?
Its GI50 is > 1000 nM.

Which GI50 does the source give for N#Cc1ccc(CN2CCN(CC(O)CN3CCc4ccccc4C3)C2=O)cn1 (stereo not shown) [Example 21, 5-((3-(3-(3,4-dihydroisoquinolin-2(1H)-yl)-2-hydroxypropyl)-2-oxoimidazolidin-1-yl)methyl)picolinonitrile] here?
The GI50 was > 1000 nM.

Cc1cccc(CN2CCN(CC(O)CN3CCc4ccccc4C3)C2=O)n1 (stereo not shown) [Example 22, 1-(3-(3,4-dihydroisoquinolin-2(1H)-yl)-2-hydroxypropyl)-3-((6-methylpyridin-2-yl)methyl)imidazolidin-2-one] was tested. Which GI50 did it give?
The GI50 was > 1000 nM.

For CC1(C)C(=O)N(Cc2ccc(C#N)cc2)C(=O)N1CC(O)CN1CCc2ccccc2C1 (stereo not shown) [Example 24, 4-((3-(3-(3,4-dihydroisoquinolin-2(1H)-yl)-2-hydroxypropyl)-4,4-dimethyl-2,5-dioxoimidazolidin-1-yl)methyl)benzonitrile], which GI50 is on record?
Its GI50 is < 500 nM.

For C=C(C)c1ccc(CN2CCN(CC(O)CN3CCc4ccccc4C3)C2=O)cn1 (stereo not shown) [Example 26], which GI50 is on record?
Its GI50 is 510 to 1000 nM.

CC(C)c1ccc(CN2CCN(CC(O)CN3CCc4ccccc4C3)C2=O)cn1 (stereo not shown) [Example 28] was tested. Which GI50 did it give?
The GI50 was < 500 nM.

For CC(=O)c1ccc(CN2CCN(CC(O)CN3CCc4ccccc4C3)C2=O)cn1 (stereo not shown) [Example 32, 1-((6-Acetylpyridin-3-yl)methyl)-3-(3-(3,4-dihydroisoquinolin-2(1H)-yl)-2-hydroxypropyl)imidazolidin-2-one], which GI50 is on record?
The GI50 was 510 to 1000 nM.

N#Cc1ccc(N2CCN(CC(O)CN3CCc4ccccc4C3)C2=O)cc1 (stereo not shown) [Example 33, 4-(3-(3-(3,4-dihydroisoquinolin-2(1H)-yl)-2-hydroxypropyl)-2-oxoimidazolidin-1-yl)benzonitrile] was tested. Which GI50 did it give?
Its GI50 is > 1000 nM.

N#Cc1ccc(CN2CCN(CC(O)CN3CCc4ccccc4C3)C2=O)nc1 (stereo not shown) [Example 35, 6-((3-(3-(3,4-Dihydroisoquinolin-2(1H)-yl)-2-hydroxypropyl)-2-oxoimidazolidin-1-yl)methyl)nicotinonitrile] was tested. Which GI50 did it give?
The GI50 was < 500 nM.

With N#Cc1cccc(CN2CCN(CC(O)CN3CCc4ccccc4C3)C2=O)n1 (stereo not shown) [Example 36, 6-((3-(3-(3,4-Dihydroisoquinolin-2(1H)-yl)-2-hydroxypropyl)-2-oxoimidazolidin-1-yl)methyl)picolinonitrile] as the molecule, how does the GI50 read?
The GI50 was > 1000 nM.

Cc1cc(CN2CCN(CC(O)CN3CCc4ccccc4C3)C2=O)ccc1C#N (stereo not shown) [Example 37] was tested. Which GI50 did it give?
The GI50 was < 500 nM.

How did the GI50 turn out when CC1(C)CN(Cc2ccc(C#N)cn2)C(=O)N1CC(O)CN1CCc2ccccc2C1 (stereo not shown) [Example 38, 6-((3-(3-(3,4-Dihydroisoquinolin-2(1H)-yl)-2-hydroxypropyl)-4,4-dimethyl-2-oxoimidazolidin-1-yl)methyl)nicotinonitrile] was run?
Its GI50 is < 500 nM.

For N#Cc1ccc(CN2CCN(CC(O)CN3CCc4ccccc4C3)C2=O)cc1F (stereo not shown) [Example 39, 4-((3-(3-(3,4-Dihydroisoquinolin-2(1H)-yl)-2-hydroxypropyl)-2-oxo-imidazolidin-1-yl)methyl)-2-fluorobenzonitrile], which GI50 is on record?
The GI50 was 510 to 1000 nM.
